Where “and” joins values, the source holds several entries; their conditions need not be identical. Identical values can stand only once. The whole screen tested about 110,000 compounds, of which about 230 (0.21%) showed an effect of 50% or more. This is one part of the list.
molecular target: DPAP1 (Plasmodium falciparum, UniProt Q8IIJ9); assay: primary screen, percent inhibition; read by cleavage of a fluorogenic dipeptide substrate; higher = more effect of the substance; design: species or system P. falciparum D10 trophozoite lysates; single well
Sequence (Q8IIJ9 whole entry, looked up): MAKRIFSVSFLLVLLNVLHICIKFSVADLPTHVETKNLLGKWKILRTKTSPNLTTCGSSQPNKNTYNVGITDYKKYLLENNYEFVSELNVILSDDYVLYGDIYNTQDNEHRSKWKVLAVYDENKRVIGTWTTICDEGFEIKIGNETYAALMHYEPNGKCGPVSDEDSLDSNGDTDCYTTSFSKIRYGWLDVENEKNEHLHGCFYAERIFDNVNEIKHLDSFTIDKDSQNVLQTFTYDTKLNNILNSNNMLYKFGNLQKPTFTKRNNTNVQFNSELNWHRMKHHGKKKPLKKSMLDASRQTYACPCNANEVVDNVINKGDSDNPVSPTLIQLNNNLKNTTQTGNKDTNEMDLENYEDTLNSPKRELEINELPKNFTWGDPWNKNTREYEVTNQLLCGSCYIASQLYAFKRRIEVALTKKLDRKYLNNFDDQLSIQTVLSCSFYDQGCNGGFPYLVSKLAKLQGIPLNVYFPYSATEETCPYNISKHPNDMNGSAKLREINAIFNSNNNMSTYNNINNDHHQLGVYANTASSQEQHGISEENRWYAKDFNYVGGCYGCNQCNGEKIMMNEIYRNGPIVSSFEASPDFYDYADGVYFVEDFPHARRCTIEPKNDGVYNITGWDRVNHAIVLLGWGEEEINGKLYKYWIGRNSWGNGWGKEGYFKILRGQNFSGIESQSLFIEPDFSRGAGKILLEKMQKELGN
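Note: 30 min substrate incubation versus DMSO and 10 µM JCP410 controls.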

Structure (SMILES)	% Inhibition @ 10 uM
O=C(NCCc1ccccc1)c1nn2c(c1Cl)NC(c1cccs1)CC2C(F)(F)F (centres unmarked)	7.93%
CCOC(=O)C1=C(NC(=O)CSc2nnnn2-c2ccccc2)SC2CN(C)CCC12 (centres unmarked)	-6.94%
C=CCN1C(=O)C(CC(=O)Nc2cc(C)ccc2OC)S/C1=N\c1ccccc1 (centres unmarked)	-0.173%
CCOc1ccc2[nH]c(SCC)nc2c1	-0.341%
O=C(CCC1CCCCC1)NC1(C(F)(F)F)NC(=O)N(Cc2cccnc2)C1=O (centres unmarked)	-0.132%
CCc1ccc(N2CC(C(=O)Nc3ccccc3C(F)(F)F)CC2=O)cc1 (centres unmarked)	2.79%
CC1CCCCC1NC(=O)CCN1N=C(c2ccccc2)CCC1=O (centres unmarked)	2.35%
CC(C)(C)NC(=O)CCn1nc(-c2ccc(Cl)cc2)ccc1=O	-3.58%
COc1cc(OC)cc(-c2nc3nc(C)c(CCC(=O)NCCc4ccc(Cl)cc4)c(C)n3n2)c1	-6.03%
Cc1oc2cc3oc(=O)c(CC(=O)N4CCCC4)c(C)c3cc2c1-c1ccccc1	0.895%
O=C(Cn1ncn2cccc2c1=O)NCc1cccc(Cl)c1	-3.6%
CCC(=O)Nc1sc2c(c1C(=O)Nc1ccc(C)cc1)CCC2	0.13%
COc1ccc(CNC(=O)CCCn2ncn3c(cc4occc43)c2=O)cc1OC	-2%
CCNC(=O)c1cc(-c2ccccc2)nc2ccccc12	0.205%
Cc1ccc(N2CCN(C(=O)c3ccccc3)CC2)cc1Cl	0.528%
COC(=O)NCCC(c1ccccc1)c1ccccc1	0.13%
CCOc1ccc(-c2csc(/C(C#N)=C/c3cccc4ccccc34)n2)cc1	-2.42%
CCOc1ccc(CNCc2c(C(=O)O)c(C)n(Cc3ccccc3F)c2C)cc1OC	2.8%
Cc1ccc(OCC(=O)n2nc(C)cc2C)c(Br)c1	-5.14%
Cc1ccc(C)c(-n2c(C)cc(/C=C3/C(=N)N4C=CSC4=NC3=O)c2C)c1	3.87%
O=c1ccc(-c2ccccc2)nn1Cc1ccc(F)cc1	-0.946%
CCCCCN1C(C(=O)c2ccccc2)=C(OC(=O)c2ccco2)c2ccccc2S1(=O)=O	-2.71%
O=C(Cn1ncc2c3ccccc3n(Cc3ccccc3F)c2c1=O)NCCCN1CCCC1=O	-3.58%
O=C(O)Cn1nc(-c2ccccc2)cc1-c1ccccc1	-5.43%
CC(C)(C)c1ccc(OCc2ccc(C(=O)N3CCN(C(=O)c4ccco4)CC3)cc2)cc1	-0.519% and -0.725%

Structure (SMILES)	% Inhibition @ 10 uM
Cc1cccc(C)c1NC(=O)CSc1ncn(-c2ccccc2)n1	-3.78%
Cc1cc(C)nc(-n2cc3c(=O)[nH]c(=S)[nH]c3n2)n1	-3.33%
COc1cccc(-n2nnc3c(=O)n(Cc4cccc(C)c4)cnc32)c1	-3.94%
Cc1ccc(-n2c(S)nnc2CN2CCN(C)CC2)cc1Cl	-2.42%
O=C(Cc1coc(-c2ccc(F)cc2)n1)N1CCOCC1	4.4%
NC(=O)C1C(=O)NC(c2ccccc2)=CC1c1ccc(Cl)cc1 (centres unmarked)	-3.22%
O=C1CCCc2c1nc(-c1cccc(Cl)c1)n2O	3.48%
CCOc1ccc(CCNC(=O)c2cc3c(s2)-c2ccccc2S(=O)(=O)C3)cc1	0.953%
NC(=O)c1cccc(NC(=O)c2ccccc2)c1	5.29%
CC1CCC(N2CCN(CCO)CC2)CC1 (centres unmarked)	-5.44%
N#CCNC(=O)C(Cc1ccccc1)NC(=O)c1cnccn1 (centres unmarked)	-3.14%
CCOC(=O)c1c(C)c(C(=O)NCc2ccc(C)cc2)c(C)n1C	0.0579%
Cc1ccc(/C=C2\CN(C)C/C(=C\c3ccc(C)cc3)C2=O)cc1	1.07%
COc1ccc(-c2nc3ccccc3c(=O)n2CCCn2ccnc2)cc1	-2.8%
CC(C)(C)c1cc(CN(CCO)CCO)c(O)c(C(C)(C)C)c1	4.8%
COc1cc2c(cc1OC)C(c1ccccc1)NCC2 (centres unmarked)	-1.8%
COc1ccc(OC)c(/C=C2/SC(Nc3cccc(C(=O)O)c3)=NC2=O)c1	-1.44%
CCOc1ccc(-n2cc(-c3ccccc3)c3c(NCCCO)ncnc32)cc1	4.61%
CCCOc1ccc(N2C(=O)CC(N3CCN(c4ccc(F)cc4)CC3)C2=O)cc1 (centres unmarked)	-3.72%
COC(=O)c1c(/N=C/N(C)C)c(C#N)c2n1CCCC2	3.03%
CCc1nc2ccc(C(=O)N3CCC(C(N)=O)CC3)cc2nc1CC	-6.62%
CCOc1ccc(C2Nn3c(nnc3-c3ccccc3)SC2C(=O)NCc2ccccc2)cc1 (centres unmarked)	-7.35%
Cc1cccc(N2CCN(C(=O)c3ccco3)CC2)c1C	-5.14%
CC(C)c1ccc(S(=O)(=O)N2CCN(c3ccc(F)cc3)CC2)cc1	-5.4%
C=C1CC2C(CCC3(C)C2CCC3(O)C(C)=O)C2(C)CCC(=O)C=C12 (centres unmarked)	-0.744%

Reference: paper PMC6919601, “Identification of Plasmodium dipeptidyl aminopeptidase allosteric inhibitors by high throughput screening” (PLoS ONE, 2019)
